According to PubChem BioAssay AID1347120 (National Center for Advancing Translational Sciences (NCATS), 2019):
Among all 390,000 compounds or so, about 930 (0.24%) were called active. Inconclusive results, whose numbers are uncertain, are shown with a selection of clear calls. Calls follow the shape of the dose curve; as a rule, active = well fitted activation curve with a large enough effect; inconclusive = small, poorly fitted or top-dose-only effect; inactive = no such curve, though single readings can be large or run the other way. Potencies of inconclusive entries are doubtful fits and often do not repeat.

Assay: qHTS for Suppressors of FUS Proteinopathy: Primary screen using FUS-linked yeast assay; also: nearly all actives have a fitted effect of over 55% in size
Details: S. cerevisiae FUS-expressing, OD600, 24 h; Potency: growth rescue; series mostly up to 76.6 µM
Outline: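 Yeast FUS proteinopathy model; galactose-induced FUS (2%), starting OD 0.005. Cpds in dilution series, 24hr, 30C, 99% humidity. Abs 600 nm growth. Pos ctrl CP55940 (top 92uM final); neg ctrl DMSO.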
Potency is read from the fitted curve at half-maximal effect; tags tell the direction and shape of the fitted curve.

Structure (SMILES) | Potency
C=CCN(c1ccccc1OC)S(=O)(=O)c1ccc(Cl)c(C(=O)Nc2ccc(N3CCOCC3)cc2)c1 | inconclusive: 11.2 µM [activator, partial curve, poor fit]
Cc1ccc(NC(=O)C2CC(=O)N(c3ccc4c5c(cccc35)CC4)C2)cc1 (stereo not drawn) | inconclusive: 28.2 µM [activator, single point]
COCc1cc(C)nc(SCC[N+](C)(C)CC(=O)Nc2cccc(C(F)(F)F)c2)c1C#N | inconclusive: 31.6 µM [activator, partial curve, poor fit]
CCc1cc[n+](/C(C(=S)Nc2cccc(C)c2)=C(/[O-])c2ccc(C)c([N+](=O)[O-])c2)cc1 | inconclusive: 35.5 µM [activator, single point]
CC(=O)c1c2c3c(c(Br)ccc3n(C)c1=O)C(=O)c1ccccc1-2 | inactive
O=C(CCN1C(=O)/C(=C\C=C\c2ccccc2)SC1=S)Nc1cccc(C(=O)O)c1 | inconclusive: 8.91 µM [activator, partial curve, poor fit]
CN1C(=O)C(=O)N(c2cccc(C(F)(F)F)c2)C1=O | inconclusive: 5.62 µM [activator, single point]
COc1ccc(Cl)cc1NC(=O)c1ccc2c(c1)CCCN2S(C)(=O)=O | inconclusive: 35.5 µM [activator, single point]
COc1ccc(N2CC(C(=O)Nc3nc(-c4ccccc4)c(C(C)=O)s3)CC2=O)c(OC)c1 (stereo not drawn) | inconclusive: 35.5 µM [activator, single point]
COc1cc(/C=C2/S/C(=N/S(=O)(=O)c3ccccc3)NC2=O)c([N+](=O)[O-])cc1OC | inactive
Clc1ccccc1-c1ccc2ncnc(NCc3ccc4c(c3)OCO4)c2c1 | inactive
COc1ccc(CN2C(=O)COc3ccccc3C2c2nnnn2C2CCCCC2)cc1 (stereo not drawn) | inconclusive: 10 µM [activator, partial curve]
CCOC(=O)c1c(C)n(-c2ccccc2)c2ccc(OC(=O)c3ccccc3NC(=O)C(C)(C)C)cc12 | inconclusive: 20 µM [activator, single point]
Cc1ccc(S(=O)(=O)[N-]c2nc3ccccc3nc2-n2cc[n+](Cc3ccccc3)c2)cc1 | inconclusive: 7.08 µM [activator, partial curve]
Oc1ccc(CNc2cccnc2)c2cccnc12 | inconclusive: 15.8 µM [activator, single point]
CCN1CCN(c2cc(C)c3cc(NC(=O)c4cc(Cl)ccc4OC)ccc3n2)CC1 | inactive
COc1ccccc1[C@H]1C(c2cccc(C)c2)=NN(c2ccccc2)[C@@H]1CO | inconclusive: 12.6 µM [activator, partial curve, poor fit]
C[C@@H]1CCCCO[C@@H](CN(C)S(=O)(=O)c2cccs2)[C@@H](C)CN([C@H](C)CO)C(=O)c2cc(NS(=O)(=O)c3ccccc3)ccc2O1 | inconclusive: 14.1 µM [activator, partial curve, poor fit]
COc1ccc(S[C@]2(C(=O)N3CCOCC3)CC(=O)N(C(=O)/C=C/c3ccccc3)[C@@H]2c2ccc(OC)cc2)cc1 | inactive
CC(C)(C)OC(=O)N1CCC(c2c(C(=O)NCC3CCN(C4CCCC4)C3)cnn2-c2cccc(Cl)c2)CC1 (stereo not drawn) | inconclusive: 31.6 µM [activator, partial curve, poor fit]

Structure (SMILES) | Potency
FC(F)(F)c1ccccc1-c1ccc2nncn2c1 | inactive
CCCCN(C)C(=O)CSc1nnc(-c2cccnc2)n1C1CCCCC1 | inactive
Cc1cccc(N2CCN(C(=O)CCSCc3ccccc3F)CC2)c1C | inconclusive: 31.6 µM [activator, partial curve, poor fit]
CCOC(=O)Cn1nnnc1CN(Cc1ccc(OC)cc1)Cc1cc2cc(CC)ccc2[nH]c1=O | inconclusive: 35.5 µM [activator, single point]
CCCCN(CC(=O)Nc1cccc(S(=O)(=O)N2CCCC2)c1)Cc1nc2ccccc2c(=O)[nH]1 | inconclusive: 14.1 µM [activator, partial curve]
Cn1cccc1[C@]1(O)C(=O)Nc2ccc(F)cc21 | inactive
C[C@H](CO)N1C[C@H](C)[C@@H](CN(C)S(=O)(=O)c2cccs2)Oc2ccc(NC(=O)NC3CCCCC3)cc2C1=O | inconclusive: 20 µM [activator, single point]
COc1cc(/C=N/NC(N)=O)ccc1OCC(=O)Nc1ccc(C)c(C)c1 | inconclusive: 35.5 µM [activator, partial curve, poor fit]
C=CCc1cc(/C=C/c2nc(O)c([N+](=O)[O-])c(=O)[nH]2)cc(OC)c1O | inconclusive: 11.2 µM [activator, partial curve, poor fit]
COc1ccc(S(=O)(=O)N2N=C(c3cccc(NS(C)(=O)=O)c3)CC2c2ccco2)cc1 (stereo not drawn) | inconclusive: 50.1 µM [activator, single point]
COc1cccc(C(NC(C)=O)c2nc(-c3cccc(C(C)C)c3)cs2)c1 (stereo not drawn) | inconclusive: 28.2 µM [activator, single point]
CCSc1nn(CC(=O)Nc2cccc(Cl)c2)c(N)c1S(=O)(=O)c1ccc(OC)cc1 | inconclusive: 28.2 µM [activator, single point]
O=C(CNc1ccc(Br)cc1)Nc1ccc(S(=O)(=O)N2CCCCC2)cc1 | inconclusive: 39.8 µM [activator, single point]
O=C1[C@H]2[C@@H](C(=O)N1c1cc(Cl)cc(Cl)c1)[C@]1(C(=O)Nc3ccccc31)N1CCC[C@@H]21 | inconclusive: 20 µM [activator, partial curve, poor fit]
COC(=O)c1cc(-c2ccccc2OC)c(=O)n2c1CCC2 | inactive
COC(=O)[C@@]1(Cc2ccc(F)cc2)[C@H]2c3cc(C(=O)N(C)C)n(CC4CC4)c3C[C@H]2CN1C(=O)c1ccccc1 | active: 25.1 µM
COc1ccc(CN2CC(=O)N3[C@H]4c5cc(C)ccc5OC[C@@H]4[C@H](c4ccccc4)[C@]3(C)C2=O)cc1 | inconclusive: 50.1 µM [activator, single point]
Cc1ccccc1Cn1cc(CN2[C@@H](CC(C)C)COc3cc(Br)ccc3S2(=O)=O)nn1 | inactive
CC(C)C[C@@H](CN1CCCC1CN1C(=S)NC[C@@H]1Cc1ccc(O)cc1)N1C[C@H](Cc2ccc(O)cc2)N(CC2CCCCCC2)C1=S (stereo partly drawn) | inconclusive: 50.1 µM [activator, single point]
Cc1ccc(C)c(CN2C(=O)c3ccccc3S(=O)c3ccc(C(=O)NCCC4=CCCCC4)cc32)c1 (stereo not drawn) | inactive

Structure (SMILES) | Potency
COc1cccc(Nc2nc3ccc(C(=O)c4ccccc4)cc3n3c(C)nnc23)c1 | inactive
COc1ccc(Cl)cc1NC(=O)CN(C)C(=O)c1cc2c(s1)CCCC2 | inconclusive: 35.5 µM [activator, single point]
Cc1ccc(C)c(S(=O)(=O)N2CCCCC2CCNC(=O)C(=O)NC2CCCC2)c1 (stereo not drawn) | inconclusive: 22.4 µM [activator, partial curve, poor fit]
CC(C)C[C@H](NC(=O)[C@@H]1Cc2c([nH]c3ccccc23)C2c3ccccc3C(=O)N21)C(=O)N1CCC[C@@H]1C(=O)O (stereo partly drawn) | inconclusive: 22.4 µM [activator, partial curve]
O=C(CCN1C(=O)c2ccccc2C1=O)Nc1cccc(S(=O)(=O)N2CCCCC2)c1 | inconclusive: 50.1 µM [activator, single point]
CCOc1ccc2nc(N(CCCN(C)C)C(=O)c3ccc(S(=O)(=O)N4CCCC4)cc3)sc2c1 | inconclusive: 7.08 µM [activator, partial curve, poor fit]
Cc1[nH]n(-c2ccccc2)c(=O)c1C(C[N+](=O)[O-])c1ccc(Cl)cc1 (stereo not drawn) | inconclusive: 50.1 µM [activator, partial curve, poor fit]
CC1Cc2ccccc2N1CC(=O)NC(=O)NC1CCCCC1 (stereo not drawn) | inconclusive: 2.51 µM [activator, full curve, poor fit]
Cc1ccc(NCc2cccn2-c2nnc(N3CCC(C(=O)NCc4ccc(OC(C)C)cc4)CC3)s2)cc1 | inconclusive: 35.5 µM [activator, single point]
COc1ccccc1N1CCN(S(=O)(=O)c2c(C)sc3ncn(CC(=O)N(C)c4ccc(C(C)C)cc4)c(=O)c23)CC1 | inconclusive: 8.91 µM [activator, partial curve]
CCCCn1c(=O)[nH]c(=O)c2c1nc(-c1ccccc1F)n2Cc1ccccc1 | inconclusive: 28.2 µM [activator, single point]
CC(C)c1ccc(/C=N/n2c(COc3ccccc3)n[nH]c2=S)cc1 | inconclusive: 31.6 µM [activator, partial curve, poor fit]
CCOCCOC(=O)c1ccc(NC(=O)/C=C/c2ccc(OC)c(OC)c2)cc1 | inactive
COc1ccc(Nc2c(-c3cc(Br)ccc3O)nc3ncccn23)cc1OC | inactive
CCCCn1c(/C=N/Nc2nc3ccccc3[nH]2)nc2ccccc21 | inconclusive: 25.1 µM [activator, single point]
Cc1ccc(C2C=C(c3ccc4c(c3)OCO4)Nc3ncnn32)cc1 (stereo not drawn) | inactive
CCn1c(=O)c(C(=O)CN2CCc3ccccc32)c(N)n(Cc2ccccc2)c1=O | inconclusive: 35.5 µM [activator, partial curve, poor fit]
CCC(COC(=O)c1ccccc1)Oc1cc(NCc2ccccc2)c2ncn(C(C)C)c2c1 (stereo not drawn) | inconclusive: 35.5 µM [activator, single point]
